Assay results: PubChem BioAssay (NCI)
More than one record can exist for a structure, and the calls need not agree.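 Values shown are percent growth following 48 h exposure of cells in 96-well plates to a single concentration of compound; below 10 was considered active.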 The source holds more than one record for some entries. They are shown here; other results are not. There may be further records. For part of these data: The screen tested this drug many times, at its own concentration, as given; one value stands for one run. Marks such as (2×) count equal records among those shown. Some values that stand alone complete this part of the results. Activity calls are given as the source filed them.

Experiments:
[1] = system: UACC-257 melanoma; experiment: NCI-60 one-dose screen, 48 h (100 = growth as untreated, 0 = no growth, -100 = all killed)
[2] = system: SK-MEL-2 melanoma; experiment: as above; details: 0.25 µM

COc1cccc2c1C(=O)c1c(O)c3c(c(O)c1C2=O)C[C@@](O)(C(=O)CO)C[C@@H]3OC1CC(N)C(O)C(C)O1 (stereo not given in full)
growth ([1]; 0.25 µM, runs of 2021): inactive: 51.8, 54.3 (2×), 48.1, 46.4, 48.2, 49, 59.3, 50.6, 40.5, 43.9, 43, 46.2, 48.7 (2×), 51.9 (2×), 57.8, 53.5, 43.6, 44.5 (2×), 46.5, 42.1, 42.8 (2×), 47.4, 47.6, 39.4, 55.3, 56.4, 55.4, 49.4, 56.5, 56.9, 48.5, 45.2, 62.2, 54.4, 61.1, 67.8, 41.7, 45, 35.9, 20.9, 34.7, 55.9, 32.2, 31.9, 43.8, 46.7% | growth ([1]; 0.25 µM, runs of 2022): active: -32.4%, -29.2%, -27.3% and inactive: 34.7, 35.8, 44.7, 11.4, 39.4, 41.2, 48.2, 31.2, 50.2, 62.8, 45.6, 42.7, 39.3, 28.6, 72.6, 83.2, 41.5, 80.4, 74.4, 79.4, 50.9, 52.3, 42.9, 41.8% | growth ([1]; 25 µM, runs of 1991): active: -62, -76.4, -60, -58.6, -71.3, -78.8, -53.6, -83.1 (2×), -70.9, -48.2, -37, -44.2, -89.3, -71.1, -58.5, -80.5% and inactive: 11.4% | growth ([1]; 25 µM, runs of 1992): active: -71.8, -49.2, -53.6, -44.9, -8.88, -88.9, -68.6, -59.2, -85.6, -75.9, -44.7 (2×), -46.3, -43.2, -5.66, -27.2, -63.8, -49, -59.8 (2×), -62.6, -56.7, -74.3, -40.1 (2×), -83.4, -89, -24.4, -45.2, -32.1, -14.5, -18.1, -35.6, -0.964, -29.3, -71.1, -76.4, -73.5, -60.1, -72.9, -64.8, -89.8, -71.5, -53.4, -31.5, -49.4, -63.6, -20.4, 6.6, -15.1, -13.4, -73, -77.3, -85.1, -87.1, -80.6, -77.4, -15, -26.6, -38.7, -29.7, -20.5, -14.3, -62.1 (2×), -85.3, -67, -77.1, -86.7, -42.6, -74.6, -79.2, -48.1, -22.9, 1.15, -45.4, -30.5, -80.9, -33.3, -95.9, -81.6 (2×), -79.4, -83.2, -92, -30.2, 7.05, -34.6, -16.3, -63.7, -78.8, -60.5, -25.4, -52.3, -27.9, -23.8, -64.6, -69.6, -71.9, -54.3, -56.8, -31.7, -25.3, -28.3, -77, -60.3, -61.7, -60.6, -27.6, -64.9, -29.2, -33.4, -74.2, -72.5, -36.3, -21.8, -54.4% | growth ([1]; 25 µM, runs of 1993): active: -72.8, -36.5, -34.8, -61.4, -80.2, -19.6, -49.4, -56.5 (2×), -76.2, -58.7, -61.2, -30.8, -49.6, -52.6, -60.1, -39.2, -50.5, -88.3, -86.6, -75.9, 9.76, -60.6, -53.1, -78.8, -61.7, -69.2, -25.1, -71.6, -54.4, -76.5, -83.1, -78.4, -66.3, -85.9, -89, -14.8, -85.1, -44.4, -63.9, -92, -78.5, -53.2, -95.6, -70% | growth ([1]; 25 µM, runs of 1994): active: -16.9, -46.2, -75, -65.9, -79.9, -93.5, -46.4, -73.5, -73.2, -89.4, -47.4, -30.2, -57.7, -72.6, -77.6, -50.3, -84.4, -49.8, -52, -57.1, -71.3, -67.9, -82.1, -81.4, -70.5, -52.5, -10.5, -74, -61.9, -52.1, -85.5, -46.1, -24.8% and inactive: 97.6% | growth ([1]; 25 µM, runs of 1995): active: -32.5, -42.6, -56, -14.9, -59.8, -42.1, -76.8, -24.1, -47.2, -64.4, -82.3, -50.8, -30.4, -91.7, -83.4, -30.1, -45.6, -65, -69.1, -80.3, -93.1, -95.9, -64.5, -59.9, -42.3, -83, -38.3, -64.7, -46.7, -55.4, -69, -69.6, -45.3, -68.2, -84, -78.9, -60, -63.4, -48.9, -57.7, -79.1% | growth ([1]; 25 µM, runs of 1996): active: -56.4 (2×), 8.78, -53.1, -8.68, -53.6, -48.2, -24.1, -3.97, -83.8, -9.58, 1.24, -20.7, -24.6, -20.6, -11, -38.8, -20, -16.8, -12.2, -19.4, -1.39, -23.2, -61.8, -40.1, -20.1, -4.15, -42.4, -59, -68.7, -74, -72.8, -32.4, -20.5, -32.8, -73.1, -61.3, -51.2, -34.7, -16.5, -15.1, 7.56, -21.1, -26.2, -43.8, -37, -44.4, -37.5, -63.8, -23.9, -48.7, -56.7, -35.8, -48.4, -53.3% and inactive: 41.2% | growth ([1]; 25 µM, runs of 1997): active: -56.4, -80.8, -53.8, -29.9, -51.6, -16.7, -39.5, -63, -21.1, -69.5, -64.4, -68.9, -47.1, -38.9, -68.4, -67.8, -35.9, -66.4, -58.4, -52.7, -61.2, -75.8, -33.1, -65.2, -50.5, -41.2, -84.6, -85.5, -61.5, -53.3, -59.3, -27.2, -13.3, -11.1, -29.1, -84, -48.1, -49.8, -70.3, -58, -18.4, -6.5, -13.1, -18.5% | growth ([1]; 25 µM, runs of 1998): active: -31.1 (2×), -41.3, -1.11, -62.8, -8.44, -29.7, -27, 7.28, -37.3, -19.3, -24.1, 5.36, -17.6, -48.5, -51.6, -38.1, -60.4, -17.7, -35.8, -23.1, -49.1% and inactive: 18.8%, 25.2% | growth ([1]; 25 µM, runs of 1999): active: -60.4, -46.8, -52.3, -51.4, 6.7, -100 (3×), -95.7, -72, -31.2, -90.4, -48.4, 0.465, -94.4, -52.8, -99.5% | growth ([1]; 25 µM, runs of 2000): active: -100% (2×), -45.2%, -94.2% | growth ([2]; runs of 2006): inactive: 62.8% | growth ([2]; runs of 2007): inactive: 62.4, 71.3, 69.5, 46.7, 67.7, 44.5 (2×), 75.6, 79.8, 57.9, 63.1, 78.7, 63.5, 78.3, 66.7, 72.9, 75.3, 79.2, 72.6, 78.4, 47.4, 35.1, 40.2, 77.1, 61.5, 82.9, 61.4, 67.1, 26.5, 68.8, 51.3, 37, 33.4, 114, 92.5, 70.6, 64.7, 56.5, 57, 63.2% | growth ([2]; runs of 2008): inactive: 53.6, 46.7, 52.8, 45.7, 65.4, 79.4, 73.5 (2×), 60.5, 81, 60, 71.5, 69.7, 84.4 (2×), 19.3, 62.4, 40.3, 47.3, 37.2, 44.6, 39.4, 16.9, 41.5, 63.6, 97.6, 61.6, 30.4 (2×), 63.7, 29.3, 49.5, 48.4, 26.6, 41.8, 31.1, 60.8, 65.3, 60.1, 59.2, 80.8, 76.3, 36.2, 55.3, 41, 54.3, 44.1, 34.7% and active: 5.47%, -0.229%
